Our source for the fractional viability values is the supplement of paper PMC5919970.

Counter-ions that a name gives are not always drawn. Over roughly 2,000 compounds, “fractional viability relative to vehicle” has its median near 0.91; the lowest 2% begin near 0.045. The list shows a part of the results.

The subject of the test is TYKNU. Nature of the test: fractional viability relative to vehicle; TYKNU is a high-grade serous ovarian cancer line; higher = less growth inhibition. The following applies: 72 h. The method in brief: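 TYKNU control cells or lentiCRISPRv2 knockout derivatives were seeded at 500 cells per well into drug-stamped 384-well plates holding a ~2100-compound library at 2 or 10 μM, in duplicate. Cells were grown at 37 °C in 5% CO2 in RPMI 1640 with 10% FBS, and drug treatment lasted 72 h. Viability was read by Cell Titer Glo luminescence. Duplicate treatment wells were averaged and normalised to duplicate control wells from the same plate position.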

The mark [1] stands for this setting: 2uM, genotype: DNM1L knockout (sgDNM1L #1).
[2] abbreviates: 2uM, genotype: sgCTRLA1 (non-targeting control).
The mark [3] stands for this setting: 10uM, genotype: DNM1L knockout (sgDNM1L #1).
Setting [4] is: 10uM, genotype: sgCTRLA1 (non-targeting control).

In the case of `O=NO` [Sodium Nitrite], the fractional viability reads like this: under setting [1], 1.02; under setting [2], 1.19; under setting [3], 0.911; under setting [4], 1.08.

For `O=C(O)CCC(=O)Nc1ccc(Br)cn1` [Bikinin], the fractional viability is, setting by setting: under setting [1], 0.804; under setting [2], 0.987; under setting [3], 0.703; under setting [4], 0.789.

Turning to `COc1ccc(C(=O)Nc2sc3c(c2C(N)=O)CCCC3)cc1OC`, the fractional viability runs as follows: under setting [1], 0.763; under setting [2], 1.02; under setting [3], 0.861; under setting [4], 0.817.

For `CC(C)(Oc1ccc(Cl)cc1)C(=O)O` [Clofibric Acid], the fractional viability by setting is: under setting [1], 0.85; under setting [2], 1.06; under setting [3], 0.749; under setting [4], 0.991.

With `CC(=O)[C@@]1(O)CC[C@H]2[C@@H]3CCC4=CC(=O)CCC4=C3[C@@H](c3ccc(N(C)C)cc3)C[C@@]21C` [Ulipristal], the fractional viability reads like this: under setting [1], 1.21; under setting [2], 1.03; under setting [3], 0.769; under setting [4], 0.911.

On to `COc1cc(Nc2ncc(F)c(Nc3ccc4c(n3)NC(=O)C(C)(C)O4)n2)cc(OC)c1OC`, for which the fractional viability by setting is: under setting [1], 0.858; under setting [2], 1.03; under setting [3], 0.497; under setting [4], 0.582.

With `COc1cc(Nc2ncc(F)c(Nc3ccc4c(n3)NC(=O)C(C)(C)O4)n2)cc(OC)c1OC` [R406 (free base)], the fractional viability reads like this: under setting [1], 0.948; under setting [2], 1; under setting [3], 0.973; under setting [4], 0.961.

In the case of `COc1cc2ncc(-c3ccccc3)nc2cc1OC` [Tyrphostin AG 1296], the fractional viability runs as follows: under setting [1], 0.982; under setting [2], 1.1; under setting [3], 1.25; under setting [4], 0.81.

Regarding `CCC[C@H](Nc1nc(-c2ccc(NC(=O)NCC)c(OC)c2)ncc1C)c1cccnc1` [CYT997 (Lexibulin)], the fractional viability by setting is: under setting [1], 0.159; under setting [2], 0.134; under setting [3], 0.139; under setting [4], 0.107.

Turning to `CC(C)(Sc1cc(C(C)(C)C)c(O)c(C(C)(C)C)c1)Sc1cc(C(C)(C)C)c(O)c(C(C)(C)C)c1` [Probucol], the fractional viability worked out at 1.05 under setting [1], 1.01 under setting [2], 0.979 under setting [3] and 0.985 under setting [4].

With `CS(=O)(=O)CCNCc1ccc(-c2ccc3ncnc(Nc4ccc(OCc5cccc(F)c5)c(Cl)c4)c3c2)o1`, the fractional viability under setting [1] came out at 1.08, the fractional viability under setting [2] came out at 1.02, the fractional viability under setting [3] came out at 0.179 and the fractional viability under setting [4] came out at 0.303.

The molecule `C=CC(=O)Nc1cccc(Nc2nc(Nc3ccc(N4CCN(C(C)=O)CC4)cc3OC)ncc2C(F)(F)F)c1` came in with a fractional viability under setting [1] of 0.528, a fractional viability under setting [2] of 0.856, a fractional viability under setting [3] of 0.24 and a fractional viability under setting [4] of 0.235.

For `Nc1c(Br)cc(Br)cc1CN[C@H]1CC[C@H](O)CC1` [Ambroxol HCl], the fractional viability reads like this: under setting [1], 0.996; under setting [2], 1.09; under setting [3], 0.813; under setting [4], 0.967.

On to `Cn1ccnc1S` [Methimazole], for which the fractional viability worked out at 1.08 under setting [1], 1.07 under setting [2], 0.971 under setting [3] and 1.04 under setting [4].

Turning to `N#CC(c1ccc(Cl)cc1)c1c(Cl)cc(-n2ncc(=O)[nH]c2=O)cc1Cl` (configuration not stated) [Diclazuril], the fractional viability runs as follows: under setting [1], 0.844; under setting [2], 1.1; under setting [3], 0.7; under setting [4], 0.879.

Molecule `COc1cc(OC)c(C(=O)CCCN2CCCC2)c(OC)c1` [Buflomedil HCl] registered a fractional viability under setting [1] of 0.912, a fractional viability under setting [2] of 1.1, a fractional viability under setting [3] of 0.825 and a fractional viability under setting [4] of 1.03.

Consider `COc1ccc(CCNCc2ccc(OCc3ccc(Cl)nc3)c(OC)c2)cc1OC`, for which the fractional viability was 0.725 under setting [1], 0.973 under setting [2], 0.79 under setting [3] and 0.807 under setting [4].

Molecule `CCOc1ccc(Cc2cc([C@@H]3O[C@H](SC)[C@@H](O)[C@H](O)[C@H]3O)ccc2Cl)cc1` [Sotagliflozin (LX4211)] showed a fractional viability under setting [1] of 0.825, a fractional viability under setting [2] of 1.02, a fractional viability under setting [3] of 0.592 and a fractional viability under setting [4] of 0.694.
